Source: the supplement of paper PMC12217912
Some of the results follow. The full chains were built here from the parent and the listed change. Inactive controls read about 0.05.

B1: TEV protease; numbered along this chain (parent)
chain: MGESLFKGPRDYNPISSSICHLTNESDGHTTSLYGIGFGPFIITNKHLFRRNNGTLVVQSLHGVFKVKDTTTLQQHLVDGRDMIIIRMPKDFPPFPQKLKFREPQREERICLVTTNFQTKSMSSMVSDTSCTFPSGDGIFWKHWIQTKDGQCGSPLVSTRDGFIVGIHSASNFTNTNNYFTSVPKNFMELLTNQEAQQWVSGWRLNADSVLWGGHKVFMVKPEEPFQPVKEATQL

Variants of: B1
Assay: raw area under fraction-flipped curve 0-4 h after induction (AUC4h, not background-subtracted), DNA-recorder readout of cleavage of the substrate (dimensionless); higher = more cleavage of the substrate by the protease variant
Conditions: temperature: 34 °C; time window: 0-4 h after rhamnose induction
Description: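 In vivo DNA recorder in E. coli TOP10(DE3) ΔrhaA at 34 °C. Each TEVp single-site mutant (parent TEVp 0) is paired with a single-site variant of the 7-mer TEVs (canonical ENLYFQ|S). The substrate sits between flexible linkers in a Bxb1-sfGFP-TEVs-SsrA fusion, so cleavage stabilises Bxb1 and speeds flipping of a recombination array, read by NGS. The value is the raw area under the fraction-flipped curve over 0-4 h after rhamnose induction (AUC4h), with ≥20 reads per time point. It is not background-subtracted; inactive controls average about 0.047.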
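Further: Bxb1 expression induced with 0.2% (w/v) L-rhamnose at OD600 near 0.5, cultures sampled hourly, flipped fraction per protease–substrate barcode pair counted by paired-end Illumina sequencing.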

Variant	area with substrate ENLYFQC	area with substrate ENLYFQD	area with substrate ENLYFQF	area with substrate ENLYFQH	area with substrate ENLYFQK	area with substrate ENLYFQL	area with substrate ENLYFQM	area with substrate ENLYFQN	area with substrate ENLYFQP	area with substrate ENLYFQQ	area with substrate ENLYFQR	area with substrate ENLYFQS	area with substrate ENLYFQT	area with substrate ENLYFQE	area with substrate ENLYFQG	area with substrate ENLYFQI	area with substrate ENLYFQV	area with substrate ENLYFQW	area with substrate ENLYFQY
T174K	0.0912	0.0622	0.0761	0.0558	0.0953	0.0671	0.0668	0.0929	0.053	0.0804	0.0627	0.0853	0.0651	–	–	–	–	–	–
N175L	0.0917	–	–	0.0653	0.0383	0.0473	0.0567	0.0668	0.0526	–	0.0592	0.0856	0.0648	0.0658	0.0796	0.06	0.0659	0.051	0.0605
Y179R	0.0564	–	–	–	0.0642	0.079	0.0501	0.0588	0.0548	–	0.0613	0.0592	0.0631	–	0.118	0.0484	–	0.0596	–
V183A	0.0952	–	0.058	0.095	0.0641	0.0606	0.0654	0.0772	0.0478	0.0886	0.0662	0.0948	0.0571	–	–	–	–	0.0665	0.0834
K185M	0.118	–	0.088	0.0741	0.0699	0.0478	0.0884	0.0924	–	–	–	0.11	0.0718	–	–	0.0393	–	–	–
F187D	0.045	0.0204	0.054	0.052	–	0.049	0.0485	0.0545	–	–	0.0551	0.0563	–	–	–	0.0484	0.0531	0.0623	0.0535
F187R	0.0603	0.0342	–	–	0.0649	0.0458	–	0.0499	0.0387	–	0.0512	0.0514	0.0441	–	0.047	0.0505	0.0713	0.0471	–
M188S	0.117	–	–	–	0.0702	–	0.0692	0.0609	–	–	0.066	0.105	0.0646	–	0.0968	0.0565	–	–	–
E195N	0.0889	0.106	–	–	–	–	–	0.0672	–	–	0.0473	0.102	0.0425	0.0537	0.104	–	0.0563	0.0661	0.0905
Q198A	0.101	0.0635	–	–	0.0584	–	–	0.0671	–	–	0.0444	0.088	0.0716	–	0.0833	0.0627	0.0727	0.0551	0.0611
Q198L	0.102	0.0758	–	–	0.0731	0.0491	0.0886	0.072	–	–	0.0591	0.102	0.0588	0.0691	0.0961	0.0637	0.0393	–	–
W199F	0.0921	–	0.0682	0.0618	–	0.0616	–	0.0708	0.0528	0.0615	0.0602	0.081	0.0588	–	–	0.0756	0.0625	–	–
A207T	0.088	0.0328	–	0.0755	–	0.0555	0.0849	0.0933	–	–	0.0498	0.102	–	0.0734	0.0976	–	0.0473	0.0499	0.0732
M219W	0.128	0.0719	0.065	0.0876	0.0698	0.0684	0.0837	0.0733	–	0.114	0.0643	0.101	0.0696	–	0.0971	0.0736	–	0.0362	0.0888
F226G	0.124	–	0.0499	–	0.0656	0.0588	–	0.086	–	–	0.058	0.0966	0.0762	–	–	0.0701	0.0828	0.0752	0.12
V229E	0.132	0.107	0.0878	0.108	–	–	0.0955	0.0846	–	–	–	0.108	0.067	–	–	0.0619	–	0.0584	0.0713
V229K	0.127	–	–	–	0.0757	0.0677	–	–	0.0549	0.0707	–	0.106	0.0789	–	–	0.0537	0.0696	0.0662	–
E231N	0.125	0.0879	–	–	0.0681	0.0545	0.103	0.0935	0.0614	–	0.0621	0.105	0.0836	–	0.0892	–	0.0579	0.0773	0.0822
E231V	0.101	0.0688	–	–	–	0.0664	–	–	0.0919	–	0.0747	0.1	0.0562	–	0.0944	0.0549	0.0554	0.0591	0.0837
Q234V	0.101	–	0.0711	–	0.0678	0.0564	0.0793	0.0818	–	0.0688	0.0627	0.0968	0.0614	–	0.1	0.0601	0.0645	–	0.0835
I15M	–	0.0883	–	0.0709	0.0628	0.047	0.08	0.068	0.0672	–	–	0.0989	0.0646	–	0.0871	0.0488	–	0.0557	–
G54K	–	0.0626	0.0509	0.0635	–	–	0.0611	0.0521	–	0.0663	0.0582	0.0746	0.0688	–	0.193	–	–	0.0529	–
K100Y	–	0.0654	–	0.0595	0.0576	–	0.0711	0.0867	–	–	–	0.105	0.0617	–	–	0.0542	–	–	0.0904
R109L	–	0.0764	0.0696	–	0.0622	0.0337	0.111	–	0.0571	–	0.0634	0.1	–	–	0.125	0.0853	0.0626	0.0719	0.0554
N116Y	–	0.0413	–	0.0729	0.0768	0.0768	0.0935	–	0.0449	–	–	0.0955	–	–	0.0856	0.0757	–	0.055	0.0644
C131M	–	0.0722	0.105	–	0.0456	0.0589	0.0872	0.0793	–	0.0702	0.0513	0.0962	–	–	–	0.0563	0.0574	0.0477	0.0778
P134Q	–	0.0604	–	–	0.052	0.0594	–	–	0.0615	–	–	0.0892	–	–	0.135	–	–	0.0579	–
S135K	–	0.0572	–	0.0535	0.0709	0.0579	0.0441	0.0566	0.0511	–	0.0548	0.0639	0.0792	–	0.0651	0.0582	–	–	0.0621
